Source: the supplement of paper PMC8728848
The other results are listed elsewhere or left out.

Columns and labels:
Assay in all cases: glycan array binding signal (z-score within array); higher = stronger binding
Conditions in all cases: glycan notation: IUPAC condensed, linker removed
Gal6S(b1-4)GlcNAc = target: Gal6S(b1-4)GlcNAc
Summary of the method: (§1)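 From the Consortium for Functional Glycomics database, 3228 arrays were curated, keeping only those whose protein sequence was available. Binding is given as a within-array Z-score averaged across arrays sharing a protein sequence and across linkers. Negative Z-scores can be read as non-binding.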

Gal6S(b1-4)GlcNAc6S = target: Gal6S(b1-4)GlcNAc6S
Summary of the method: as §1

GalNAc(a1-3)Gal = target: GalNAc(a1-3)Gal
Summary of the method: as §1

GalNAc(a1-3)GalNAc = target: GalNAc(a1-3)GalNAc
Summary of the method: as §1

[1] = target: GalNAc(a1-3)GalNAc(a1-3)Gal(a1-4)Gal(b1-4)GlcNAc
Summary of the method: as §1

[2] = target: GalNAc(a1-3)GalNAc(b1-3)Gal(a1-4)Gal(b1-4)Glc
Summary of the method: as §1

GalNAc(b1-3)Gal = target: GalNAc(b1-3)Gal
Summary of the method: as §1

[3] = target: GalNAc(b1-3)Gal(a1-4)Gal(b1-4)GlcNAc
Summary of the method: as §1

[4] = target: GalNAc(b1-3)Gal(a1-4)Gal(b1-4)GlcNAc(b1-3)Gal(b1-4)Glc
Summary of the method: as §1

[5] = target: GalNAc(b1-3)Gal(a1-6)Gal(b1-4)Glc
Summary of the method: as §1

GalNAc(b1-3)GalNAc = target: GalNAc(b1-3)GalNAc
Summary of the method: as §1

GalNAc(b1-3)GlcNAc = target: GalNAc(b1-3)GlcNAc
Summary of the method: as §1

GalNAc(b1-4)Gal(b1-4)Glc = target: GalNAc(b1-4)Gal(b1-4)Glc
Summary of the method: as §1

GalNAc(b1-4)GlcNAc = target: GalNAc(b1-4)GlcNAc
Summary of the method: as §1

[6] = target: GalNAc(b1-4)GlcNAc(b1-2)Man
Summary of the method: as §1

[7] = target: GalNAc(b1-4)GlcNAc(b1-2)Man(a1-3)[GalNAc(b1-4)GlcNAc(b1-2)Man(a1-6)]Man(b1-4)GlcNAc(b1-4)GlcNAc
Summary of the method: as §1

[8] = target: GalNAc(b1-4)GlcNAc(b1-3)GalNAc(b1-4)GlcNAc
Summary of the method: as §1

GalNAc(b1-4)GlcNAc6S = target: GalNAc(b1-4)GlcNAc6S
Summary of the method: as §1

GalNAc(b1-6)GalNAc = target: GalNAc(b1-6)GalNAc
Summary of the method: as §1

GalNAc3S(b1-4)GlcNAc = target: GalNAc3S(b1-4)GlcNAc
Summary of the method: as §1

GalNAc3S(b1-4)GlcNAc3S = target: GalNAc3S(b1-4)GlcNAc3S
Summary of the method: as §1

[9] = target: GalNAc3S(b1-4)[Fuc(a1-3)]GlcNAc
Summary of the method: as §1

GalNAc4S6S(b1-4)GlcNAc = target: GalNAc4S6S(b1-4)GlcNAc
Summary of the method: as §1

GalNAc6S(b1-4)GlcNAc = target: GalNAc6S(b1-4)GlcNAc
Summary of the method: as §1

Glc(a1-4)Glc = target: Glc(a1-4)Glc
Summary of the method: as §1

[10] = target: Glc(a1-4)Glc(a1-4)Glc(a1-4)Glc
Summary of the method: as §1

Glc(a1-6)Glc(a1-6)Glc = target: Glc(a1-6)Glc(a1-6)Glc
Summary of the method: as §1

[11] = target: Glc(a1-6)Glc(a1-6)Glc(a1-6)Glc
Summary of the method: as §1

Glc(b1-4)Glc = target: Glc(b1-4)Glc
Summary of the method: as §1

Glc(b1-6)Glc = target: Glc(b1-6)Glc
Summary of the method: as §1

GlcA(b1-3)Gal = target: GlcA(b1-3)Gal
Summary of the method: as §1

GlcA(b1-3)GlcNAc = target: GlcA(b1-3)GlcNAc
Summary of the method: as §1

GlcA(b1-6)Gal = target: GlcA(b1-6)Gal
Summary of the method: as §1

[12] = target: GlcA3S(b1-3)Gal(b1-4)GlcNAc(b1-2)Man
Summary of the method: as §1

[13] = target: GlcA3S(b1-3)Gal(b1-4)GlcNAc(b1-3)Gal(b1-4)Glc
Summary of the method: as §1

[14] = target: GlcNAc(a1-3)Gal(b1-4)GlcNAc
Summary of the method: as §1

[15] = target: GlcNAc(a1-4)Gal(b1-3)GlcNAc
Summary of the method: as §1

[16] = target: GlcNAc(a1-4)Gal(b1-4)GalNAc
Summary of the method: as §1

[17] = target: GlcNAc(a1-4)Gal(b1-4)GlcNAc
Summary of the method: as §1

[18] = target: GlcNAc(a1-4)Gal(b1-4)GlcNAc(b1-3)Gal(b1-4)Glc
Summary of the method: as §1

[19] = target: GlcNAc(a1-4)Gal(b1-4)GlcNAc(b1-3)Gal(b1-4)GlcNAc
Summary of the method: as §1

[20] = target: GlcNAc(a1-4)Gal(b1-4)GlcNAc(b1-3)Gal(b1-4)GlcNAc(b1-3)Gal(b1-4)GlcNAc
Summary of the method: as §1

[21] = target: GlcNAc(a1-4)Gal(b1-4)GlcNAc(b1-3)Gal(b1-4)[Fuc(a1-3)]GlcNAc(b1-3)Gal(b1-4)[Fuc(a1-3)]GlcNAc
Summary of the method: as §1

[22] = target: GlcNAc(a1-6)Gal(b1-4)GlcNAc
Summary of the method: as §1

[23] = target: GlcNAc(b1-2)Gal(b1-3)GalNAc
Summary of the method: as §1

B1: F17-L (Escherichia coli) (protein)
chain: GPDDYVPSQIAVNTSTLPGVVIGPADAHTYPRVIGELAGTSNQYVFNGGAIALMRGKFTPALPKIGSITYTFHQGNSRDSSDFDIYDIGVSGLGIIIGMAGYWPATPLVPINSSGIYIDPVGANTNPNTYNGATASFGARLFVAFVATGRLPNGYITIPTRQLGTILLEAKRTSLNNKGLTAPVMLNGGRIQVQSQTHHHHHH
For B1, which “glycan array binding signal (z-score)” value (Gal6S(b1-4)GlcNAc) is on record?
Its value is -0.154.

What about the “glycan array binding signal (z-score)” value (Gal6S(b1-4)GlcNAc6S) of the same binder?
Its value is -0.119.

What about the “glycan array binding signal (z-score)” value (GalNAc(a1-3)Gal) of the same binder?
Its value is 0.004.

What about the “glycan array binding signal (z-score)” value (GalNAc(a1-3)GalNAc) of the same binder?
Its value is -0.04.

What about the “glycan array binding signal (z-score)” value [1] of the same binder?
The value was -0.173.

And the “glycan array binding signal (z-score)” value [2]?
The value was -0.16.

What about the “glycan array binding signal (z-score)” value (GalNAc(b1-3)Gal) of the same binder?
Its value is 0.015.

And the “glycan array binding signal (z-score)” value [3]?
Its value is -0.147.

And the “glycan array binding signal (z-score)” value [4]?
Its value is 0.668.

And the “glycan array binding signal (z-score)” value [5]?
Its value is -0.124.

What about the “glycan array binding signal (z-score)” value (GalNAc(b1-3)GalNAc) of the same binder?
The value was -0.19.

And the “glycan array binding signal (z-score)” value (GalNAc(b1-3)GlcNAc)?
Its value is 0.482.

What about the “glycan array binding signal (z-score)” value (GalNAc(b1-4)Gal(b1-4)Glc) of the same binder?
Its value is -0.085.

What about the “glycan array binding signal (z-score)” value (GalNAc(b1-4)GlcNAc) of the same binder?
The value was -0.004.

And the “glycan array binding signal (z-score)” value [6]?
The value was -0.217.

And the “glycan array binding signal (z-score)” value [7]?
The value was -0.082.

What about the “glycan array binding signal (z-score)” value [8] of the same binder?
The value was 0.184.

What about the “glycan array binding signal (z-score)” value (GalNAc(b1-4)GlcNAc6S) of the same binder?
Its value is -0.09.

What about the “glycan array binding signal (z-score)” value (GalNAc(b1-6)GalNAc) of the same binder?
The value was -0.038.

What about the “glycan array binding signal (z-score)” value (GalNAc3S(b1-4)GlcNAc) of the same binder?
The value was 0.035.

What about the “glycan array binding signal (z-score)” value (GalNAc3S(b1-4)GlcNAc3S) of the same binder?
The value was -0.17.

And the “glycan array binding signal (z-score)” value [9]?
Its value is -0.148.

What about the “glycan array binding signal (z-score)” value (GalNAc4S6S(b1-4)GlcNAc) of the same binder?
Its value is 0.032.

And the “glycan array binding signal (z-score)” value (GalNAc6S(b1-4)GlcNAc)?
The value was 0.037.

What about the “glycan array binding signal (z-score)” value (Glc(a1-4)Glc) of the same binder?
The value was -0.121.

And the “glycan array binding signal (z-score)” value [10]?
The value was -0.06.

What about the “glycan array binding signal (z-score)” value (Glc(a1-6)Glc(a1-6)Glc) of the same binder?
The value was -0.033.

What about the “glycan array binding signal (z-score)” value [11] of the same binder?
The value was -0.144.

What about the “glycan array binding signal (z-score)” value (Glc(b1-4)Glc) of the same binder?
Its value is -0.1.

What about the “glycan array binding signal (z-score)” value (Glc(b1-6)Glc) of the same binder?
Its value is 0.058.

And the “glycan array binding signal (z-score)” value (GlcA(b1-3)Gal)?
The value was -0.203.

And the “glycan array binding signal (z-score)” value (GlcA(b1-3)GlcNAc)?
The value was 1.

What about the “glycan array binding signal (z-score)” value (GlcA(b1-6)Gal) of the same binder?
Its value is -0.156.

What about the “glycan array binding signal (z-score)” value [12] of the same binder?
Its value is -0.116.

What about the “glycan array binding signal (z-score)” value [13] of the same binder?
Its value is -0.116.

And the “glycan array binding signal (z-score)” value [14]?
Its value is 0.441.

And the “glycan array binding signal (z-score)” value [15]?
The value was -0.197.

And the “glycan array binding signal (z-score)” value [16]?
The value was -0.174.

And the “glycan array binding signal (z-score)” value [17]?
The value was -0.107.

What about the “glycan array binding signal (z-score)” value [18] of the same binder?
Its value is -0.113.

And the “glycan array binding signal (z-score)” value [19]?
Its value is 0.012.

What about the “glycan array binding signal (z-score)” value [20] of the same binder?
Its value is -0.149.

And the “glycan array binding signal (z-score)” value [21]?
Its value is -0.101.

And the “glycan array binding signal (z-score)” value [22]?
Its value is -0.052.

What about the “glycan array binding signal (z-score)” value [23] of the same binder?
The value was -0.02.
